{"source": "PubChem BioAssay AID1345082", "about": "(National Center for Advancing Translational Sciences (NCATS), 2018)", "note": "Where “and” joins values, the source holds several entries; their conditions need not be identical. Equal entries are not always repeated. The whole screen tested about 94,000 compounds, of which about 4,000 (4.3%) were called active. Inconclusive means that the source gave no clear call. Such entries were picked first, then a sample of the others. Calls come from the whole dose curve; as a rule, active = well fitted inhibition curve with a large enough effect; inconclusive = small, poorly fitted or top-dose-only effect; inactive = no such curve, though single readings can be large or run the other way. Potencies of inconclusive entries are doubtful fits and often do not repeat. % is set by controls: 0 for no effect and ±100 for the full control effect; potency is the fitted concentration of half-maximal effect; tags give direction and shape of the fitted curve.", "data": [{"experiment": "Cytotoxic Profiling in NIH 3T3 Cell Line of Diverse Libraries Using Quantitative High-Throughput Screening; note: nearly all actives have a fitted effect of over 55% in size", "conditions": "NIH 3T3 viability, CellTiter-Glo ATP luminescence, 48-72 h; activity change, negative = cytotoxicity: at 96.7 µM (top of the series); series mostly up to 96.7 µM", "summary_of_the_method": "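NIH 3T3 cells at 400 cells/well received 23 nL of compound by pintool and were incubated 48 or 72 h at 37 °C. Viability was read as ATP-coupled CellTiter-Glo luminescence.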", "values": [{"smiles": "N#Cc1ccc(C(=O)Nc2ccc3n(c2=O)C[C@H]2C[C@@H]3CN(C(=O)NC3CCCCC3)C2)cc1", "Potency": "inconclusive: 50.1 µM [inhibitor, partial curve, poor fit]"}, {"smiles": "O=C1CC2(CCN(C(=O)c3ccccc3)CC2)Oc2cc(Cl)ccc21", "Potency": "inconclusive: 50.1 µM [inhibitor, partial curve, poor fit]"}, {"smiles": "O=c1c2nc(-c3ccccc3)ccc2ncn1Cc1ccccc1", "Potency": "inconclusive: 22.4 µM [inhibitor, full curve, poor fit]"}, {"smiles": "O=C(c1ccccc1Cl)N1CCN(c2nccc(Nc3ccccc3Cl)n2)CC1", "Potency": "inconclusive: 39.8 µM [inhibitor, partial curve, poor fit]"}, {"smiles": "CN(C)CCN1CC2(CCCN(C(=O)CN(C)c3ccccc3)C2)CCC1=O", "note": "(stereo unspecified)", "Potency": "inconclusive: 89.1 µM [inhibitor, single point]"}, {"smiles": "COc1ccc(-c2cc(C(=O)NCc3ccc(F)cc3)c3cnn(C)c3n2)cc1", "Potency": "inconclusive: 44.7 µM [inhibitor, partial curve, poor fit]"}, {"smiles": "N#Cc1ccc(CN2CC(Oc3ccc(F)cc3F)C2)cc1", "Potency": "inconclusive: 25.1 µM [inhibitor, full curve, poor fit]"}, {"smiles": "Cn1ccc(NC(=O)C2(C)CCCc3cnc(Nc4ccccc4)nc32)n1", "note": "(stereo unspecified)", "Potency": "inconclusive: 89.1 µM [inhibitor, partial curve, poor fit]"}, {"smiles": "O=C1OC2(CN1CC1CCOCC1)CN(c1ccccc1-c1ccccc1)C2", "Potency": "inconclusive: 89.1 µM [inhibitor, partial curve]"}, {"smiles": "Cn1ncc2c(C(=O)NCc3cccc(F)c3)cc(-c3ccccc3F)nc21", "Potency": "inconclusive: 31.6 µM [inhibitor, partial curve, poor fit]"}, {"smiles": "CN1CCN(Cc2ccc(Nc3cnc4ccc(-n5ccnc5)nn34)cc2)CC1", "Potency": "inconclusive: 44.7 µM [inhibitor, partial curve, poor fit]"}, {"smiles": "Cn1nc(C2CCCC2)cc1NC(=O)c1ccc(C(F)(F)F)cc1", "Potency": "inconclusive: 63.1 µM [inhibitor, partial curve, poor fit]"}, {"smiles": "COc1ccc(NC(=O)c2cc3n(n2)CC(c2ccc(Cl)cc2)OC3)c(OC)c1", "note": "(stereo unspecified)", "Potency": "inconclusive: 44.7 µM [inhibitor, partial curve, poor fit]"}, {"smiles": "CC1CCN(CCCNC(=O)C2CCCN(S(=O)(=O)c3cn(C)cn3)CCC(=O)NCC2)CC1", "note": "(stereo unspecified)", "activity change, negative = cytotoxicity": "inactive: 1.76%"}, {"smiles": "COCCNC(=O)[C@H]1C[C@H](Oc2ccccc2)CN1C(=O)c1cccc(OC)c1", "activity change, negative = cytotoxicity": "inactive: 4%"}, {"smiles": "CCOc1ccccc1C(=O)N1CCC(Cc2nc(-c3ccccc3)no2)CC1", "Potency": "inconclusive: 35.5 µM [inhibitor, partial curve]"}, {"smiles": "Cc1cc(CN2CCC3(CC2)CCN(Cc2cscn2)CC3CO)on1", "note": "(stereo unspecified)", "activity change, negative = cytotoxicity": "inactive: -3.85%"}, {"smiles": "Cc1cc(C)cc(-c2ccc(CN3CCCC3C(=O)NCCc3ccccc3)cc2)c1", "note": "(stereo unspecified)", "Potency": "active: 31.6 µM"}, {"smiles": "Cc1cc2nc3n(c(=O)c2n1CC(=O)Nc1cccc(Br)c1)CCCCC3", "Potency": "inconclusive: 2.82 µM [inhibitor, full curve, poor fit]"}, {"smiles": "O[C@H]1CC[C@@H](Cc2cc(-c3ccccc3)on2)O[C@@H]1CNC1CCCCC1", "Potency": "inconclusive: 100 µM [inhibitor, partial curve, poor fit]"}, {"smiles": "Cc1noc(-c2ccc3c(c2)OCO3)c1C(=O)N1CCC(Cc2ccc(F)cc2)CC1", "Potency": "active: 35.5 µM"}, {"smiles": "O=C1Cc2c(-c3cccc(O)c3)n[nH]c2CN1CC1CC1", "Potency": "inconclusive: 17.8 µM [inhibitor, full curve]"}, {"smiles": "Cc1cc(C)c(CNC(=O)c2cc(-c3ccc(CO)cc3)cc3c2OCCN3C)c(=O)[nH]1", "Potency": "active: 12.6 µM"}, {"smiles": "CCOC(=O)[C@@H]1[C@@H](OC)C(=O)N(C(C)C)C12CCN(C(=O)c1cc3ccccc3s1)CC2", "Potency": "inconclusive: 50.1 µM [inhibitor, partial curve, poor fit]"}, {"smiles": "O=C(O)CO[C@@H]1COCC[C@H]1NC(=O)C1(CO)CC1", "activity change, negative = cytotoxicity": "inactive: -27.5%"}, {"smiles": "COC(=O)c1ccc2nc(CO[C@H]3CN(Cc4cn(C)c5ccccc45)C[C@H]3F)[nH]c2c1", "Potency": "inconclusive: 70.8 µM [inhibitor, single point]"}, {"smiles": "CC(C)(C)NC(=O)N1CCC2(CC1)CC(Cc1nc(-c3cnccn3)no1)CCO2", "note": "(stereo unspecified)", "activity change, negative = cytotoxicity": "inactive: -0.714%"}, {"smiles": "O=C([C@@H]1C[C@H](Oc2ccccc2)CN1C(=O)NC1CCCCC1)N1CCOCC1", "activity change, negative = cytotoxicity": "inactive: -11.1%"}, {"smiles": "CC(C)c1noc(C2CCN(C(=O)Cn3ccc4ccccc4c3=O)CC2)n1", "activity change, negative = cytotoxicity": "inactive: 0.858%"}, {"smiles": "Cc1nc(CN2CCN(CC3(O)CCNC3)CC2)cs1", "note": "(stereo unspecified)", "activity change, negative = cytotoxicity": "inactive: 3.98%"}, {"smiles": "CC(=O)N1CCC2(C1)C(=O)N(CCc1ccccc1)c1ccccc12", "note": "(stereo unspecified)", "Potency": "inactive and inconclusive: 79.4 µM [inhibitor, partial curve, poor fit]"}, {"smiles": "Cn1ncc(N2CCC(NC(=O)c3ccc4c(c3)OCO4)CC2)cc1=O", "activity change, negative = cytotoxicity": "inactive: -0.661%"}, {"smiles": "O=C(C1CCCC1)N1Cc2ccccc2CC2(CCCCN2CC2CCNCC2)C1", "note": "(stereo unspecified)", "Potency": "active: 17.8 µM"}, {"smiles": "COCCn1c(CO)nnc1C1CC(NC(=O)c2c(C)noc2C)C1", "note": "(stereo unspecified)", "activity change, negative = cytotoxicity": "inactive: -9.04%"}, {"smiles": "COCCCNC(=O)c1cc(-c2ccc(F)cc2)nc2c1cnn2C", "Potency": "inconclusive: 79.4 µM [inhibitor, partial curve, poor fit]"}, {"smiles": "O=C(Cn1c2c(c(=O)n1Cc1ccccc1)CCN(Cc1ccccc1)C2)Nc1ccncn1", "Potency": "inconclusive: 70.8 µM [inhibitor, single point]"}, {"smiles": "Cc1ccc(N2CCC(NC(=O)c3ccc(C#N)cc3)C2=O)cc1", "note": "(stereo unspecified)", "activity change, negative = cytotoxicity": "inactive: 1.43%"}, {"smiles": "Cc1nn(-c2ccccc2)c2c1C(C1CC1)N(C1CCN(C(=O)C3CC3)C1)C2=O", "note": "(stereo unspecified)", "Potency": "inconclusive: 50.1 µM [inhibitor, partial curve, poor fit]"}, {"smiles": "O=C1N(CCc2ccccc2)CCOC12CCN(Cc1ccc3c(c1)CCO3)CC2", "Potency": "inconclusive: 56.2 µM [inhibitor, partial curve]"}, {"smiles": "CC(Oc1cccc(Cl)c1)C(=O)Nc1ccc2c(N3CCOCC3)ncnc2c1", "note": "(stereo unspecified)", "Potency": "inconclusive: 50.1 µM [inhibitor, partial curve, poor fit]"}, {"smiles": "COc1ccc(C2(C(=O)NC3CCCN(c4ncccn4)C3)CC2)cc1", "note": "(stereo unspecified)", "activity change, negative = cytotoxicity": "inactive: -7.04%"}]}]}
